US5747035A, “Polypeptides with increased half-life for use in treating disorders involving the LFA-1 receptor” (Genentech, Inc., priority 1995, dated 1998)
Several values for one entry are separate records, joined by “and”; a condition that tells them apart may be missing. Equal values may be shown once.

Assay: Pharmacokinetic study of anti-CD11/18 constructs in mice after single intravenous administration (serum concentration by MAC-1 capture ELISA)
Type: in vivo, male Crl:CD-1 (ICR)BR VAF/Plus mice
Description: Pharmacokinetic Study of Anti-CD11/18 Constructs in Mice after Intravenous Administration
The objective of this single-dose pharmacokinetic study of five humanized huH52 anti-CD18 antibody fragments (constructs) in mice was to determine if non-specific clearance of antibody fragments is affected by alterations to amino acids in the constant domain. Serum samples were collected from male CD1 mice over a 24-hour period and human anti-CD18 serum concentrations were measured by ELISA.
The anti-CD18 antibody fragments investigated were derived from E. coli-produced recombinant humanized monoclonal Fab antibody fragments as described above. The Fab fragment and the construct in which two Fab' subunits were joined together by two disulfide bonds were investigated. Lastly, three new versions of the original Fab were constructed by altering amino acids in the constant domain. See the Study Design table below for further description of the constructs.
The construct antigen-binding sites are directed against the CD18 subunit of the CD11/CD18 glycoprotein complex on the surface of leukocytes. These antibody fragments are chimpanzee and human-specific; therefore, the serum pharmacokinetic information obtained in mice provides a description of the non-specific clearance of the fragments.
Because linear pharmacokinetics were expected in this study, a single-dose level of 2 mg/kg was chosen rather than multiple-dose levels.
The pharmacokinetics of the five antibody constructs were studied in male Crl:CD-1® (ICR)BR VAF/Plus® mice (approximately 20-30 g). Five groups, each consisting of twenty mice, received an intravenous bolus dose of 2 mg/kg via the tail vein. Blood samples were collected at 5 and 30 minutes, 1, 2, 4, 8, 12, 16, 20, and 24 hours post-dose. Serum was harvested and concentrations of the antibody fragments were determined in a MAC-1 capture ELISA as follows:
96-Well microtiter plates were coated overnight with murine anti-CD18 monoclonal antibody. After overnight incubation at 4° C., plates were washed three times with ELISA wash buffer and blocked for 1 hour with ELISA diluent. ELISA wash buffer is phosphate-buffered saline (PBS)/0.05% Polysorbate™ 20. This buffer is prepared per liter as 50 mL 20×PBS/1.0% Polysorbate™ 20 (a mixture obtained by dissolving 160 g NaCl, 4.0 g KCl, 22.6 g Na2 HPO4, and 40 g KH2 PO4 in glass-distilled or deionized water, adding 10.0 mL Polysorbate™ 20 [Sigma™ P-1379 or equivalent], qs to 1000 mL, and sterile filtering using a 0.22 μm or smaller filter), and qs to 1.0 L of distilled or deionized water, stored at ambient temperature. The expiration period is 2 weeks from the date of preparation.
The ELISA diluent was PBS/0.5% BSA/0.05% Polysorbate™ 20/0.01% Thimerosal™/1 mM CaCl2 /1 mM MgCl2. This diluent was prepared per liter as 5.0 g bovine serum albumin (Armour™ N0068 or equivalent), 50 mL 20×PBS/1.0% Polysorbate™ 20/0.2% Thimerosal™ (a mixture obtained by dissolving 160 g NaCl, 4.0 g KCl, 22.6 g Na2 HPO4, and 4.0 g KH2 PO4 in glass-distilled or deionized water, and adding 10.0 mL Polysorbate™ 20 [Sigma P-1379 or equivalent] and 2.0 g Thimerosal™ [Sigma T-5125 or equivalent], qs to 1000 mL), 0.1% (v/v) 1M CaCl2 (Genentech™ A3165), 0.1% (v/v) 1M MgCl2 (Genentech™ A3167), qs to 1.0 L of distilled or deionized water, and stored at 2°-8° C., with the expiration period 1 month from the date of preparation.
After blocking, the plates were washed again three times with ELISA wash buffer. Soluble MAC1 (CD11b/CD18 as described by Berman et al., J. Cell. Biochem., 52: 183-195 [1993]) was then captured out of a concentrate of media, conditioned by CHO cells expressing the truncated CD11b/CD18 heterodimer. After a 2-hour incubation period, the plates were washed six times with ELISA wash buffer and 100 μL of the mouse serum sample being tested or the standard containing the homologous recombinant human anti-CD18 Fab were added. […]

B1: Fab v1B: Fab v1b incorporated oligos V1A and V1B; version of the original Fab constructed by altering amino acids in the constant domain (protein)
chain: ASTKGPSVFPLAPSPKNSSMISNTPALGCLVKDYFPEPVTVSWNSGALTSGVHTFPAVLQSSGLYSLSSVVTVPHQSLGTQTYICNVNHKPSNTKVDKRV
Compared with the other Fab variants
  Half life (in words): longer half life
mice, i.v. 2 mg/kg, 0.083 hours, one sample per mouse, 2 mg/kg
  Serum concentration at 0.083 hours: 28160 ng/mL and 33630 ng/mL
mice, i.v. 2 mg/kg, 0.5 hours, one sample per mouse, 2 mg/kg
  Serum concentration at 0.5 hours: 10610 ng/mL and 12830 ng/mL
mice, i.v. 2 mg/kg, 1 hour, one sample per mouse, 2 mg/kg
  Serum concentration at 1 hour: 7160 ng/mL and 6890 ng/mL
mice, i.v. 2 mg/kg, 2 hours, one sample per mouse, 2 mg/kg
  Serum concentration at 2 hours: 3710 ng/mL and 4900 ng/mL
mice, i.v. 2 mg/kg, 4 hours, one sample per mouse, 2 mg/kg
  Serum concentration at 4 hours: 910 ng/mL and 670 ng/mL
